# From the supplement of paper PMC10724272
# MIC of invasive clinical C. tropicalis isolates, CLSI broth microdilution (fluconazole 0.12-256 mg/L, up to 1,024 for the azole-resistant cluster and its neighbour group; other ranges not stated); higher = less susceptible. Call: susceptible or wild type [S] / resistant or non-wild type [R] by CLSI breakpoints or cut-offs; intermediate and dose-dependent carry no call. '<=' and '>=' at the end values are inferred; the source marks only some of them. Isolates are numbered anew.
# Compound: OC(Cn1cncn1)(Cn1cncn1)c1ccc(F)cc1F [fluconazole]
# Test: CLSI broth microdilution.
row,Test System,MIC
1,"Candida tropicalis isolate 372 (ERG11 copies: 2, Erg11p: no key change)",0.5 mg/L [S]
2,"Candida tropicalis isolate 310 (ERG11 copies: 2, Erg11p: no key change)",2 mg/L [S]
3,"Candida tropicalis isolate 129 (ERG11 copies: 7, Erg11p: Y132F, S154F (heterozygous))",512 mg/L [R]
4,"Candida tropicalis isolate 16 (ERG11 copies: 2, Erg11p: no key change)",1 mg/L [S]
5,"Candida tropicalis isolate 136 (ERG11 copies: 2, Erg11p: no key change)",1 mg/L [S]
6,"Candida tropicalis isolate 207 (ERG11 copies: 2, Erg11p: Y132F, S154F (homozygous))",64 mg/L [R]
7,"Candida tropicalis isolate 46 (ERG11 copies: 2, Erg11p: no key change)",2 mg/L [S]
8,"Candida tropicalis isolate 389 (ERG11 copies: 2, Erg11p: no key change)",2 mg/L [S]

# Compound: Nc1[nH]c(=O)ncc1F [flucytosine]
# Test: CLSI broth microdilution.
row,Test System,MIC
1,"Candida tropicalis isolate 140 (ERG11 copies: 2, Erg11p: Y132F, S154F (heterozygous))",≤ 0.06 mg/L [S]
2,"Candida tropicalis isolate 152 (ERG11 copies: 2, Erg11p: no key change)",≤ 0.06 mg/L [S]
3,"Candida tropicalis isolate 165 (ERG11 copies: 2, Erg11p: no key change)",≤ 0.06 mg/L [S]
4,"Candida tropicalis isolate 193 (ERG11 copies: 8, Erg11p: Y132F, S154F (heterozygous))",≤ 0.06 mg/L [S]
5,"Candida tropicalis isolate 316 (ERG11 copies: 2, Erg11p: Y132F, S154F (heterozygous))",≤ 0.06 mg/L [S]
6,"Candida tropicalis isolate 240 (ERG11 copies: 2, Erg11p: no key change)",≤ 0.06 mg/L [S]
7,"Candida tropicalis isolate 418 (ERG11 copies: 2, Erg11p: no key change)",≤ 0.06 mg/L [S]
8,"Candida tropicalis isolate 379 (ERG11 copies: 2, Erg11p: no key change)",≤ 0.06 mg/L [S]
9,"Candida tropicalis isolate 395 (ERG11 copies: 2, Erg11p: no key change)",≤ 0.06 mg/L [S]
10,"Candida tropicalis isolate 196 (ERG11 copies: 2, Erg11p: no key change)",≤ 0.06 mg/L [S]
11,"Candida tropicalis isolate 190 (ERG11 copies: 5, Erg11p: Y132F, S154F (heterozygous))",≤ 0.06 mg/L [S]
12,"Candida tropicalis isolate 304 (ERG11 copies: 2, Erg11p: Y132F, S154F (heterozygous))",0.12 mg/L [S]
13,"Candida tropicalis isolate 173 (ERG11 copies: 2, Erg11p: no key change)",0.12 mg/L [S]
14,"Candida tropicalis isolate 200 (ERG11 copies: 2, Erg11p: no key change)",≤ 0.06 mg/L [S]
15,"Candida tropicalis isolate 255 (ERG11 copies: 2, Erg11p: no key change)",≤ 0.06 mg/L [S]
16,"Candida tropicalis isolate 116 (ERG11 copies: 2, Erg11p: no key change)",≤ 0.06 mg/L [S]

row,Test System,MIC
1,"Candida tropicalis isolate 123 (ERG11 copies: 2, Erg11p: Y132F, S154F (heterozygous))",≤ 0.06 mg/L [S]
2,"Candida tropicalis isolate 214 (ERG11 copies: 2, Erg11p: no key change)",≤ 0.06 mg/L [S]
3,"Candida tropicalis isolate 70 (ERG11 copies: 7, Erg11p: Y132F, S154F (heterozygous))",≤ 0.06 mg/L [S]
4,"Candida tropicalis isolate 144 (ERG11 copies: 2, Erg11p: no key change)",≤ 0.06 mg/L [S]
5,"Candida tropicalis isolate 263 (ERG11 copies: 6, Erg11p: Y132F, S154F (heterozygous))",≤ 0.06 mg/L [S]
6,"Candida tropicalis isolate 102 (ERG11 copies: 2, Erg11p: no key change)",≤ 0.06 mg/L [S]
7,"Candida tropicalis isolate 242 (ERG11 copies: 2, Erg11p: no key change)",≤ 0.06 mg/L [S]
8,"Candida tropicalis isolate 372 (ERG11 copies: 2, Erg11p: no key change)",0.12 mg/L [S]
9,"Candida tropicalis isolate 310 (ERG11 copies: 2, Erg11p: no key change)",≤ 0.06 mg/L [S]
10,"Candida tropicalis isolate 129 (ERG11 copies: 7, Erg11p: Y132F, S154F (heterozygous))",≤ 0.06 mg/L [S]
11,"Candida tropicalis isolate 16 (ERG11 copies: 2, Erg11p: no key change)",≤ 0.06 mg/L [S]
12,"Candida tropicalis isolate 136 (ERG11 copies: 2, Erg11p: no key change)",≤ 0.06 mg/L [S]
13,"Candida tropicalis isolate 207 (ERG11 copies: 2, Erg11p: Y132F, S154F (homozygous))",≤ 0.06 mg/L [S]
14,"Candida tropicalis isolate 46 (ERG11 copies: 2, Erg11p: no key change)",≤ 0.06 mg/L [S]
15,"Candida tropicalis isolate 389 (ERG11 copies: 2, Erg11p: no key change)",≤ 0.06 mg/L [S]

# Compound: C[C@@H](c1ncncc1F)[C@](O)(Cn1cncn1)c1ccc(F)cc1F [voriconazole]
# Test: CLSI broth microdilution.
row,Test System,MIC
1,"Candida tropicalis isolate 140 (ERG11 copies: 2, Erg11p: Y132F, S154F (heterozygous))",1 mg/L [R]
2,"Candida tropicalis isolate 152 (ERG11 copies: 2, Erg11p: no key change)",≤ 0.008 mg/L [S]
3,"Candida tropicalis isolate 165 (ERG11 copies: 2, Erg11p: no key change)",0.5 µg/mL
4,"Candida tropicalis isolate 193 (ERG11 copies: 8, Erg11p: Y132F, S154F (heterozygous))",> 8 mg/L [R]
5,"Candida tropicalis isolate 316 (ERG11 copies: 2, Erg11p: Y132F, S154F (heterozygous))",≥ 8 mg/L [R]
6,"Candida tropicalis isolate 240 (ERG11 copies: 2, Erg11p: no key change)",0.12 mg/L [S]
7,"Candida tropicalis isolate 418 (ERG11 copies: 2, Erg11p: no key change)",0.25 µg/mL
8,"Candida tropicalis isolate 379 (ERG11 copies: 2, Erg11p: no key change)",0.25 µg/mL
9,"Candida tropicalis isolate 395 (ERG11 copies: 2, Erg11p: no key change)",0.06 mg/L [S]
10,"Candida tropicalis isolate 196 (ERG11 copies: 2, Erg11p: no key change)",0.03 mg/L [S]
11,"Candida tropicalis isolate 190 (ERG11 copies: 5, Erg11p: Y132F, S154F (heterozygous))",≥ 8 mg/L [R]
12,"Candida tropicalis isolate 304 (ERG11 copies: 2, Erg11p: Y132F, S154F (heterozygous))",0.5 µg/mL
13,"Candida tropicalis isolate 173 (ERG11 copies: 2, Erg11p: no key change)",0.12 mg/L [S]
14,"Candida tropicalis isolate 200 (ERG11 copies: 2, Erg11p: no key change)",0.03 mg/L [S]
15,"Candida tropicalis isolate 255 (ERG11 copies: 2, Erg11p: no key change)",0.25 µg/mL
16,"Candida tropicalis isolate 116 (ERG11 copies: 2, Erg11p: no key change)",0.12 mg/L [S]

row,Test System,MIC
1,"Candida tropicalis isolate 123 (ERG11 copies: 2, Erg11p: Y132F, S154F (heterozygous))",2 mg/L [R]
2,"Candida tropicalis isolate 214 (ERG11 copies: 2, Erg11p: no key change)",0.06 mg/L [S]
3,"Candida tropicalis isolate 70 (ERG11 copies: 7, Erg11p: Y132F, S154F (heterozygous))",≥ 8 mg/L [R]
4,"Candida tropicalis isolate 144 (ERG11 copies: 2, Erg11p: no key change)",0.25 µg/mL
5,"Candida tropicalis isolate 263 (ERG11 copies: 6, Erg11p: Y132F, S154F (heterozygous))",≥ 8 mg/L [R]
6,"Candida tropicalis isolate 102 (ERG11 copies: 2, Erg11p: no key change)",0.06 mg/L [S]
7,"Candida tropicalis isolate 242 (ERG11 copies: 2, Erg11p: no key change)",0.06 mg/L [S]
8,"Candida tropicalis isolate 372 (ERG11 copies: 2, Erg11p: no key change)",0.03 mg/L [S]
9,"Candida tropicalis isolate 310 (ERG11 copies: 2, Erg11p: no key change)",0.12 mg/L [S]
10,"Candida tropicalis isolate 129 (ERG11 copies: 7, Erg11p: Y132F, S154F (heterozygous))",> 8 mg/L [R]
11,"Candida tropicalis isolate 16 (ERG11 copies: 2, Erg11p: no key change)",0.12 mg/L [S]
12,"Candida tropicalis isolate 136 (ERG11 copies: 2, Erg11p: no key change)",0.03 mg/L [S]
13,"Candida tropicalis isolate 207 (ERG11 copies: 2, Erg11p: Y132F, S154F (homozygous))",2 mg/L [R]
14,"Candida tropicalis isolate 46 (ERG11 copies: 2, Erg11p: no key change)",0.25 µg/mL
15,"Candida tropicalis isolate 389 (ERG11 copies: 2, Erg11p: no key change)",0.12 mg/L [S]
